Values joined by “and” are separate entries in the source; they are usually repeats but may differ in a detail not shown here. Identical values can stand only once. The campaign covered roughly 410,000 compounds. About 6,400 (1.6%) were called active. Inconclusive means that the source gave no clear call. Such entries were picked first, then a sample of the others. Calls come from the whole dose curve; as a rule, active = well fitted inhibition curve with a large enough effect; inconclusive = small, poorly fitted or top-dose-only effect; inactive = no such curve, though single readings can be large or run the other way. Potencies beside an inconclusive call are fits to weak or partial responses and may not hold up.
These compounds were tested against Glucagon-like peptide 1 receptor (Homo sapiens) (UniProt P43220) (assay: qHTS of GLP-1 Receptor Inverse Agonists (Inhibition Mode)). Details: HEK293 GLP-1R CRE-luciferase, luminescence, 24 h, GLP-1R form is constitutively active; activity change, negative = inhibition: at 38.3 µM (top of the series) unless noted.
Chain of UniProt P43220 (P43220 whole entry, looked up): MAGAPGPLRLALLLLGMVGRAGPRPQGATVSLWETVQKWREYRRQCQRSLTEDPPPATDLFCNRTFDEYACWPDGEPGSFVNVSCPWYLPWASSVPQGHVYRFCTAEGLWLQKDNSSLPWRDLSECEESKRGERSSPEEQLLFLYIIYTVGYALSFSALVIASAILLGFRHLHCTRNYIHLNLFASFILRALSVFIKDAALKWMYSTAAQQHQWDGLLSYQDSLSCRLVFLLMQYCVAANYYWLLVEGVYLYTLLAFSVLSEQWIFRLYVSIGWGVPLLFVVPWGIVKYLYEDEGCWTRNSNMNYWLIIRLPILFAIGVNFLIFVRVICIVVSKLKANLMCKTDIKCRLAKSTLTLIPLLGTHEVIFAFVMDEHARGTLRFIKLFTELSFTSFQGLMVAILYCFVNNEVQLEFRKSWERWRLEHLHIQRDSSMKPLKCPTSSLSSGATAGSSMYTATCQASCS
In short: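 Constitutively active GLP-1R drives a cAMP-responsive luciferase in stably transfected HEK293 cells; test compounds are added after overnight (12 h) attachment and left 24 hr, and signal loss in luminescence marks inhibition.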
% is set by controls: 0 for no effect and ±100 for the full control effect; potency is the fitted concentration of half-maximal effect; tags give direction and shape of the fitted curve.
Note: nearly all actives have a fitted effect of over 55% in size.

Compound | Potency | activity change, negative = inhibition
CCOC(=O)C1CCCN(C(=O)c2cccc(S(=O)(=O)N(C)c3ccc(C)cc3)c2)C1 (configuration not stated) | inconclusive: 28.2 µM [inhibitor, single point] | 
CCCCN(CC)CCCNC(=O)CS(=O)(=O)Cc1nc(-c2cccc(OC)c2)oc1C |  | inactive: 0%
CCCN1CCc2nc(N3CCN(C)CC3)ncc2C1 |  | inactive: -13.3%
Cc1ccc(NC(=O)CSc2ccccc2NC(=O)c2ccccc2)cc1Cl | inconclusive: 11.2 µM [inhibitor, single point] | 
CCOC(=O)C1(CCOc2ccccc2)CCN(Cc2ccc(O)c(OC)c2)CC1 | inconclusive: 12.6 µM [inhibitor, partial curve, poor fit] | 
Cc1cc(C)n(-c2c(F)c(F)c(CN3CCCCC3)c(F)c2F)n1 | inconclusive: 12.6 µM [inhibitor, partial curve, poor fit] | 
Cc1ccc2nc(-c3ccccn3)c(Nc3ccccc3C)n2c1 | inconclusive: 28.2 µM [inhibitor, single point] and inconclusive: 12.6 µM [inhibitor, partial curve, poor fit] | 
CC(C)c1ccc2oc(-c3cc(N)ccc3O)nc2c1 | inconclusive: 28.2 µM [inhibitor, single point] | 
CCOc1cccc(C(=O)Nc2ccc3c(c2)OCCO3)c1 | inconclusive: 2.82 µM [inhibitor, single point] | 
Brc1ccccc1CN1CCN(Cc2c[nH]c3ccccc23)CC1 | inconclusive: 31.6 µM [inhibitor, partial curve, poor fit] | 
Cc1cc(C)n(CC(O)COc2ccccc2C(=O)Nc2ccccc2)n1 (configuration not stated) | inconclusive: 22.4 µM [inhibitor, single point] | 
CC(=O)c1c(C)[nH]c(C(=O)Nc2ccc(N3CCCCCC3)cc2)c1C | inconclusive: 14.1 µM [inhibitor, partial curve, poor fit] | 
COc1ccccc1OCC(=O)NNC(=O)CCCC(=O)NNC(=O)COc1ccccc1OC |  | inactive: -4.5%
Cc1ccccc1NC(NC(=O)c1cccnc1)C(Cl)(Cl)Cl (configuration not stated) | inconclusive: 12.6 µM [inhibitor, single point] | 
Cc1c(C(=O)N(Cc2ccccc2)C2CCS(=O)(=O)C2)oc2ccccc12 (configuration not stated) | inconclusive: 10 µM [inhibitor, partial curve, poor fit] | 
Cc1cccc(-c2ccc3[nH]c4c(c3c2)CCN2C[C@@H]([C@H](C)O)[C@@H](N(C)C(=O)NC3CCCCC3)C[C@@H]42)c1 | inconclusive: 10 µM [inhibitor, partial curve] | 
COCCn1c(CCC(=O)Nc2ccc(C)c(Cl)c2)nc2cccnc21 |  | inactive: 23%
COC(=O)C1CSC(C(=O)OC)N1C(=O)Nc1ccc(Cl)cc1 (configuration not stated) |  | inactive: 12.3%
COC(=O)C[C@@H]1C=C[C@@H](NC(=O)c2ccccc2F)[C@@H](CO)O1 |  | inactive: 1.5%
CCSc1ncc(Cl)c(C(=O)Nc2ccc(S(=O)(=O)N3CCC(C)CC3)cc2)n1 |  | inactive: -22.8%
Cc1c(Cl)cccc1NC(=O)Cn1cc(C(=O)C2CCCCC2)c2ccccc21 | inconclusive: 2.51 µM [inhibitor, full curve, poor fit] | 

Compound | Potency | activity change, negative = inhibition
CCN1CCN(CCOc2ccc(Cl)cc2)CC1 | inconclusive: 6.31 µM [inhibitor, partial curve, poor fit] | 
Clc1ccc2nc(NCc3ccccc3)c3nncn3c2c1 |  | inactive: 13.3%
CCOC(=O)c1c(-c2cccs2)csc1N | inconclusive: 12.6 µM [inhibitor, single point] | 
CC(C)C(NC(=O)c1ccc(C(C)(C)C)cc1)C(=O)NCC(c1ccccc1)N(C)C (configuration not stated) | inconclusive: 11.2 µM [inhibitor, single point] | 
CCN(Cc1ccccc1)C(=O)c1cc2c(OC)c(OC)c(OC)cc2[nH]1 | inconclusive: 28.2 µM [inhibitor, single point] | 
Cc1ccc(NC(=O)CSC2=Nc3ccccc3C3=NC(Cc4ccccc4)C(=O)N23)cc1C (configuration not stated) | inconclusive: 12.6 µM [inhibitor, single point] | 
CCCCN(CCCNC(=O)c1ccc(Sc2ccc(Cl)cc2)c(NC(C)=O)c1)c1ccccc1 | inconclusive: 12.6 µM [inhibitor, partial curve, poor fit] | 
CC(=O)c1ccc(-c2nc3ccccc3n2C)o1 |  | inactive: 36.8%
COc1ccc(C2N(c3ccc(Cl)cc3)N=C(C(C)=O)N(C)N2C(C)=O)cc1 (configuration not stated) | active: 10 µM | 
CCc1ccc(Nc2ncc3c(n2)CC(c2ccco2)CC3=O)cc1 (configuration not stated) |  | inactive: 16%
Cc1cc(C)c(C(=O)N2CCCC(Nc3ccc(C)c(C)c3)C2)o1 (configuration not stated) | inconclusive: 28.2 µM [inhibitor, single point] | 
O=C(c1ccccc1)c1ccc(OCCn2cnc3ccccc3c2=O)cc1 | inconclusive: 10 µM [inhibitor, single point] | 
CCOC(=O)c1cc2sccc2n1CC(=O)N1CCCc2ccccc21 | inconclusive: 11.2 µM [inhibitor, single point] | 
O=S(=O)(c1cccc(Cl)c1)N1CCSc2ccccc21 | inconclusive: 28.2 µM [inhibitor, single point] | 
COc1ccc(-n2ncc3c(N4CCC(C)CC4)ncnc32)cc1 | inconclusive: 7.94 µM [inhibitor, partial curve, poor fit] | 
Cc1ccc(Nc2c(F)c(F)c(F)c(F)c2C(=O)O)c(C)c1 | inconclusive: 12.6 µM [inhibitor, partial curve, poor fit] | 
Cc1sc2nc(CN3CCN(c4ccc(O)cc4)CC3)[nH]c(=O)c2c1C | inconclusive: 6.31 µM [inhibitor, partial curve, poor fit] | 
Cc1cc(C(=O)NNc2ccc(F)cc2)no1 | active: 5.01 µM | 
COc1cccc(C(=O)Oc2cc(N)n(S(=O)(=O)c3ccc(C)cc3)n2)c1OC | inconclusive: 17.8 µM [inhibitor, partial curve, poor fit] | 
C(=N\Nc1ccccn1)/c1ccc2c(c1)OCCO2 | inconclusive: 28.2 µM [inhibitor, single point] | 
Cc1ccc(Nc2nnc(SCC(=O)NC3CCCc4ccccc43)s2)cc1 (configuration not stated) | inconclusive: 10 µM [inhibitor, single point] | 

Reference: PubChem BioAssay AID624417 (National Center for Advancing Translational Sciences (NCATS), 2012)
